Test results published in PubChem BioAssay AID488969 (Vanderbilt High Throughput Screening Facility, 2010).
In all, about 110,000 compounds were measured (“z-score”: median about -0.1, highest 2% from about 2 on). The list shows a part of the results. Active and inactive are the calls of the source.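 How the source made its calls: active means z-score in the third read window above 3 or below -3; inactive means the rest.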

target: Metabotropic glutamate receptor 8 (Rattus norvegicus) (UniProt P70579); experiment: mGluR8 Gi/Go-coupled signaling modulation – cell-based, rat, thallium flux, HTS, primary screen (AID 488969); details: HEK293 rat mGluR8, GIRK (G protein-gated inwardly rectifying potassium channel) thallium flux, FluoZin2; at 10 µM; stronger effect = higher value; submaximal glutamate (EC20) added with thallium
Sequence of UniProt P70579 (P70579 whole entry, looked up): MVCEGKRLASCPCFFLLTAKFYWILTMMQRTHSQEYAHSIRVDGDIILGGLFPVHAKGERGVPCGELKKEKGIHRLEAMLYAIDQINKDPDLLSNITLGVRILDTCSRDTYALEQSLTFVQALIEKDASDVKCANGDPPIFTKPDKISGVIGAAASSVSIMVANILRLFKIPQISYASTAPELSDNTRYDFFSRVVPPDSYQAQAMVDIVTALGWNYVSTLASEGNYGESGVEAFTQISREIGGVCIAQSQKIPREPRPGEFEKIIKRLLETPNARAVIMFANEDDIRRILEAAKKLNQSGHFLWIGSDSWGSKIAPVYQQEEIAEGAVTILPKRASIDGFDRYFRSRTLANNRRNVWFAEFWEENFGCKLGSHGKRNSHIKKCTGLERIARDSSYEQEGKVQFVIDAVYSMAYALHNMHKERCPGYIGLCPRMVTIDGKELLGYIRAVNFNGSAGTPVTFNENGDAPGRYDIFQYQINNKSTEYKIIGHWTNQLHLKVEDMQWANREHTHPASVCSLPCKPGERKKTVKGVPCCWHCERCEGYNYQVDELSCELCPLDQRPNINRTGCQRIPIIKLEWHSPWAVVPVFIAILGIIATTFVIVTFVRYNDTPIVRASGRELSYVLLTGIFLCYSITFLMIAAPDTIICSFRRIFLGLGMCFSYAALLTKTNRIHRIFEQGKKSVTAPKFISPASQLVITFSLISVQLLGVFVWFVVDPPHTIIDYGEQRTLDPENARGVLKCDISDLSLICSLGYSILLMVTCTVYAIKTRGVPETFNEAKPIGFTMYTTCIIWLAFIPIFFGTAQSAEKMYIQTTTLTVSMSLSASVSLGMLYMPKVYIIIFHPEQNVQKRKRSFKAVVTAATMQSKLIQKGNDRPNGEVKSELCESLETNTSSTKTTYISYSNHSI

| SMILES | z-score |
| --- | --- |
| CCn1ncc(C(=O)Nc2ccc(S(=O)(=O)N3CCCC3)cc2)c1C | 0.826 |
| Cc1ccc(Sc2nc(C)cc(C)c2S(C)(=O)=O)cc1 | -0.329 |
| COc1ccc2c(c1)cc1n2CCN=C1NCCO | -0.0724 |
| COc1cc(O)c(C(C)=O)cc1OC | 0.68 |
| CCOc1cc(NC(=S)NCC2CCCO2)c(OCC)cc1NC(=O)c1ccccc1C (stereo not given) | 0.0372 |
| Cc1ccc(-c2noc(CCC(=O)Nc3cc(C)ccn3)n2)cc1 | -0.445 |
| O=C1c2cccc3cccc(c23)C(=O)N1OS(=O)(=O)c1ccc(Cl)cc1 | 0.123 |
| Cc1c(C#N)c2ncn(CCCN(C)C)c(=O)c2n1-c1ccccc1 | -0.334 |
| O=C(NNC(=O)c1ccc(Cl)cc1Cl)c1ccncc1 | 0.97 |
| Cc1ccc2nc(NC(=O)Cn3nc(C)c([N+](=O)[O-])c3C)sc2c1 | -0.0691 |
| CS(=O)(=O)N1N=C(c2ccc(Br)cc2)CC1c1ccc2c(c1)OCO2 (stereo not given) | -0.311 |
| C/C(=N\NS(=O)(=O)c1ccc(Cl)cc1)c1ccc(NC(=O)c2ccco2)cc1 | -0.376 |
| Cc1cccc(S(=O)(=O)Nc2cccc3c2C(=O)c2ccccc2-3)c1 | active: 8.14 |
| O=C(Nc1cccc(C(F)(F)F)c1)c1cccnc1 | 0.0334 |
| CCn1c(=NC(=O)CSC(C)=O)sc2ccccc21 | active: 3.49 |
| CCN(CC)S(=O)(=O)c1ccc(-c2nnc3sc4cccc(C)c4n23)cc1 | -0.6 |
| Cc1nc2ccccn2c1C(=O)N=Nc1c(O)n(CCC(C)C)c2ccccc12 | -0.614 |
| Cc1ccc(CNC(=O)c2cn(C3CCCCC3)c(=O)c3c2c2ccccc2n3C)o1 | -0.644 |
| CCn1c(=O)c(C(=O)CN2c3ccccc3CC2C)c(N)n(Cc2ccccc2)c1=O (stereo not given) | -1.25 |
| Cc1ccn2cc(-c3cnoc3C)nc2c1 | 0.218 |
| CC[N+](C)(C)CCN(Cc1ccc(Cl)cc1)c1ccccn1 | 0.423 |
| COc1cc(/C=N/N2C(=O)c3ccccc3NC2(C)c2cccc([N+](=O)[O-])c2)cc(Br)c1O (stereo not given) | 0.0269 |
| COc1cccc(-c2cc(N3C(=O)Nc4ccccc4N3O)n[nH]2)c1 | -0.0707 |
| CCOc1ccccc1OCC(=O)Nc1nnc(C)s1 | 0.336 |

| SMILES | z-score |
| --- | --- |
| Cc1ccc(C(=O)N/C(=C\c2ccco2)C(=O)NCc2cccnc2)cc1 | -0.256 |
| COc1ccc(C2C=C(c3ccccc3)Nc3nc(NC(C)=O)nn32)cc1 (stereo not given) | -0.298 |
| O=C(Cn1c(=O)sc2ccccc21)NCc1ccccn1 | 1.29 |
| Oc1ccc(N2CCN(C(=S)NCCc3ccccc3)CC2)cc1 | -0.0993 |
| CCn1c(C)cc(/C=C2\SC(=O)N(CC(=O)Nc3ccc(C)c(C)c3)C2=O)c1C | 0.305 |
| C=CCNc1oc(COc2ccc(C)cc2)nc1C#N | -0.0504 |
| Cn1c(-c2c(N)n(CCCc3ccccc3)c3nc4ccccc4nc23)nc2ccccc21 | 0.0137 |
| O=C(NCc1ccc2c(c1)OCO2)c1ccc(C2SCC(=O)N2Cc2ccco2)cc1 (stereo not given) | -0.994 |
| Cc1coc2cc3oc(=O)c4c(c3cc12)CCCC4 | -0.489 |
| CCN(CC)S(=O)(=O)c1cccc(C(=O)NCC2CCCO2)c1 (stereo not given) | 0.42 |
| O=C(N/N=C/c1ccncc1)c1nc(-c2ccccc2)n2c1CCCCC2 | -0.271 |
| Cc1ccc(NC(=O)C(=O)NC2CCCCC2)cc1 | 0.276 |
| Cc1ccc(CN2C(=O)C3CCCN3c3ccc(C#N)cc32)cc1 (stereo not given) | -0.734 |
| Cn1c(=O)c2c(-c3ccccc3)n3c4ccccc4ncc3c2n(C)c1=O | -1.64 |
| O=C(CCNC(=O)c1ccc(Br)o1)NCc1ccccn1 | 0.23 |
| C/C(=N\Nc1ccc(C(F)(F)F)cc1[N+](=O)[O-])C1CC1 | -0.192 |
| O=C(COC(=O)/C=C/c1ccco1)Nc1cccc([N+](=O)[O-])c1 | 1.65 |
| O=C(NCc1ccco1)c1sc2cc(F)ccc2c1Cl | -0.935 |
| NC(=O)C1(N2CCCCC2)CCN(C(=O)Nc2ccccc2C(F)(F)F)CC1 | -0.0409 |
| CCOC(=O)c1cccnc1SC(CC)C(=O)NCc1ccco1 (stereo not given) | -0.502 |
| CCOc1ccc(C2C(C(=O)c3ccco3)=C(O)C(=O)N2CCN(C)C)cc1 (stereo not given) | 0.0359 |
| COC(=O)c1cc(NC(=O)Nc2cc(OC)ccc2OC)cc(C(=O)OC)c1 | -0.501 |
| CCOc1ccc(/C(O)=C2\C(=O)C(=O)N(CCOCCO)C2c2ccccc2OC)cc1 (stereo not given) | -0.683 |
| Cc1cc(N2CCN(c3ccccc3)CC2)nc(-c2ccccc2O)n1 | -0.813 |

| SMILES | z-score |
| --- | --- |
| O=C(C(Cc1ccccc1)n1cccc1)N1CCCCC1 (stereo not given) | -0.0522 |
| CCc1ccc(/C=N/NC(=O)c2cc(C3CC3)nc3ccccc23)s1 | 1.4 |
| CC(C)(C)n1nnnc1CN(Cc1cccnc1)Cc1ccccc1Cl | -0.00735 |
| O=S(=O)(Cc1cnc(Cl)s1)c1ccccc1 | 0.0235 |
| CC1=CC2=NCC(O)CN2C=C1 (stereo not given) | -0.103 |
| CCN1C(=O)C(CC(=O)Nc2ccc(OC)cc2)N(Cc2cccnc2)C1=S (stereo not given) | -0.0498 |
| CC(=O)NC(CC(=O)Nc1ccc(S(=O)(=O)N2CCCCC2)cc1)c1ccccc1 (stereo not given) | -0.123 |
| O=c1c2ccccc2[nH]c(=S)n1CC1CCCO1 (stereo not given) | 0.302 |
| COC(=O)Cn1nc(C)c2ccccc2c1=O | -0.0898 |
| CCN(Cc1ccccc1)C(c1ccccn1)c1nnnn1C1CCCCC1 (stereo not given) | 0.521 |
| CCOC(=O)C1CCCN(c2c(NCCN(CC)c3ccccc3)c(=O)c2=O)C1 (stereo not given) | -0.781 |
| Nn1c(Cc2cccc3ccccc23)nnc1SCn1nnc2ccccc2c1=O | 0.116 |
| CCOC(=O)Cc1nnc(NC(=O)CSc2ccccc2)s1 | 0.161 |
| CCCCCn1c(N)c(-c2nc3ccccc3o2)c2c([N+](=O)[O-])nn(CC)c(=O)c21 | -0.014 |
| COC(=O)C1=C(C)N(CCc2ccccc2)C(=O)C1(NS(=O)(=O)c1ccc(NC(C)=O)cc1)C(F)(F)F (stereo not given) | -0.327 |
| CCOc1ccc(Cl)cc1CSc1ncn[nH]1 | 0.0322 |
| Cc1ccc(NC(=O)COC(=O)C2CCC(=O)N2)c(S(=O)(=O)N2CCOCC2)c1 (stereo not given) | -0.196 |
| CCOc1cc(CNCCc2ccc(S(N)(=O)=O)cc2)ccc1OCc1ccccc1 | 0.617 |
| COc1c(Cl)cc(-c2noc(C)c2C(=O)NCc2ccccc2)cc1Cl | -0.588 |
| CN(CCNC(=O)C1CC(=O)N(C2CCCC2)C1)Cc1ccccc1 (stereo not given) | -0.238 |
| CC(=O)Nc1ccc(N2CCCCC2)c(C(=O)Nc2cccc(C)c2)c1 | -0.0504 |
| O=C(Nc1ccc(OC(F)F)c(Cl)c1)C(c1ccccc1)c1ccccc1 | -0.354 |
